{
  "source": "the supplement of paper PMC8728848",
  "test_in_all_cases": "glycan array binding signal (z-score within array); higher = stronger binding",
  "details_in_all_cases": "glycan notation: IUPAC condensed, linker removed",
  "key": {"GlcNAc(b1-3)Gal(b1-4)Glc": {"target": "GlcNAc(b1-3)Gal(b1-4)Glc", "summary_of_the_method": "(§1)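 The binding signal is a Z-score computed within each array. Data were drawn from 3228 arrays in the Consortium for Functional Glycomics database, restricted to those with a known protein sequence. Scores were averaged over arrays of the same protein sequence at different concentrations or buffers, and over linkers, and negative values can be taken as non-binding.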"}, "[1]": {"target": "GlcNAc(b1-3)Gal(b1-4)GlcNAc", "summary_of_the_method": "as §1"}, "[2]": {"target": "GlcNAc(b1-3)Gal(b1-4)GlcNAc(b1-3)Gal(b1-4)GlcNAc", "summary_of_the_method": "as §1"}, "GlcNAc(b1-3)GalNAc": {"target": "GlcNAc(b1-3)GalNAc", "summary_of_the_method": "as §1"}, "GlcNAc(b1-3)Man": {"target": "GlcNAc(b1-3)Man", "summary_of_the_method": "as §1"}, "[3]": {"target": "GlcNAc(b1-3)[GlcNAc(b1-4)][GlcNAc(b1-6)]GlcNAc", "summary_of_the_method": "as §1"}, "[4]": {"target": "GlcNAc(b1-3)[GlcNAc(b1-6)]Gal(b1-4)GlcNAc", "summary_of_the_method": "as §1"}, "[5]": {"target": "GlcNAc(b1-3)[GlcNAc(b1-6)]GalNAc", "summary_of_the_method": "as §1"}, "[6]": {"target": "GlcNAc(b1-4)Gal(b1-4)GlcNAc", "summary_of_the_method": "as §1"}, "GlcNAc(b1-4)GlcNAc": {"target": "GlcNAc(b1-4)GlcNAc", "summary_of_the_method": "as §1"}, "[7]": {"target": "GlcNAc(b1-4)GlcNAc(b1-4)GlcNAc", "summary_of_the_method": "as §1"}, "[8]": {"target": "GlcNAc(b1-4)GlcNAc(b1-4)GlcNAc(b1-4)GlcNAc(b1-4)GlcNAc", "summary_of_the_method": "as §1"}, "[9]": {"target": "GlcNAc(b1-4)GlcNAc(b1-4)GlcNAc(b1-4)GlcNAc(b1-4)GlcNAc(b1-4)GlcNAc", "summary_of_the_method": "as §1"}, "[10]": {"target": "GlcNAc(b1-4)[GlcNAc(b1-6)]GalNAc", "summary_of_the_method": "as §1"}, "[11]": {"target": "GlcNAc(b1-6)Gal(b1-4)GlcNAc", "summary_of_the_method": "as §1"}, "GlcNAc(b1-6)GalNAc": {"target": "GlcNAc(b1-6)GalNAc", "summary_of_the_method": "as §1"}, "GlcNAc3Prop(b1-4)GlcNAc": {"target": "GlcNAc3Prop(b1-4)GlcNAc", "summary_of_the_method": "as §1"}, "[12]": {"target": "GlcNAc6S(b1-3)Gal(b1-4)GlcNAc", "summary_of_the_method": "as §1"}, "Kdn(a2-3)Gal(b1-3)GalNAc": {"target": "Kdn(a2-3)Gal(b1-3)GalNAc", "summary_of_the_method": "as §1"}, "Kdn(a2-3)Gal(b1-3)GlcNAc": {"target": "Kdn(a2-3)Gal(b1-3)GlcNAc", "summary_of_the_method": "as §1"}, "Kdn(a2-3)Gal(b1-4)Glc": {"target": "Kdn(a2-3)Gal(b1-4)Glc", "summary_of_the_method": "as §1"}, "Kdn(a2-3)Gal(b1-4)GlcNAc": {"target": "Kdn(a2-3)Gal(b1-4)GlcNAc", "summary_of_the_method": "as §1"}, "[13]": {"target": "Kdn(a2-3)Gal(b1-4)[Fuc(a1-3)]GlcNAc", "summary_of_the_method": "as §1"}, "Kdn(a2-6)Gal(b1-4)GlcNAc": {"target": "Kdn(a2-6)Gal(b1-4)GlcNAc", "summary_of_the_method": "as §1"}, "[14]": {"target": "Man(a1-2)Man(a1-2)Man(a1-3)Man", "summary_of_the_method": "as §1"}, "[15]": {"target": "Man(a1-2)Man(a1-2)Man(a1-6)[Man(a1-3)]Man", "summary_of_the_method": "as §1"}, "Man(a1-2)Man(a1-3)Man": {"target": "Man(a1-2)Man(a1-3)Man", "summary_of_the_method": "as §1"}, "[16]": {"target": "Man(a1-2)Man(a1-3)[Man(a1-2)Man(a1-6)]Man", "summary_of_the_method": "as §1"}, "[17]": {"target": "Man(a1-2)Man(a1-3)[Man(a1-2)Man(a1-6)]Man(a1-6)[Man(a1-2)Man(a1-2)Man(a1-3)]Man", "summary_of_the_method": "as §1"}, "[18]": {"target": "Man(a1-2)Man(a1-3)[Man(a1-2)Man(a1-6)]Man(a1-6)[Man(a1-2)Man(a1-2)Man(a1-3)]Man(b1-4)GlcNAc(b1-4)GlcNAc", "summary_of_the_method": "as §1"}, "[19]": {"target": "Man(a1-2)Man(a1-3)[Man(a1-6)]Man(a1-6)[Man(a1-2)Man(a1-3)]Man(b1-4)GlcNAc(b1-4)GlcNAc", "summary_of_the_method": "as §1"}, "[20]": {"target": "Man(a1-2)Man(a1-6)[Man(a1-3)]Man(a1-6)[Man(a1-2)Man(a1-2)Man(a1-3)]Man", "summary_of_the_method": "as §1"}, "[21]": {"target": "Man(a1-2)Man(a1-6)[Man(a1-3)]Man(a1-6)[Man(a1-2)Man(a1-2)Man(a1-3)]Man(b1-4)GlcNAc(b1-4)GlcNAc", "summary_of_the_method": "as §1"}, "Man(a1-3)[Man(a1-6)]Man": {"target": "Man(a1-3)[Man(a1-6)]Man", "summary_of_the_method": "as §1"}, "[22]": {"target": "Man(a1-3)[Man(a1-6)]Man(a1-6)[Man(a1-2)Man(a1-3)]Man(b1-4)GlcNAc(b1-4)GlcNAc", "summary_of_the_method": "as §1"}, "[23]": {"target": "Man(a1-3)[Man(a1-6)]Man(a1-6)[Man(a1-3)]Man", "summary_of_the_method": "as §1"}, "[24]": {"target": "Man(a1-3)[Man(a1-6)]Man(a1-6)[Man(a1-3)]Man(b1-4)GlcNAc(b1-4)GlcNAc", "summary_of_the_method": "as §1"}, "[25]": {"target": "Man(a1-3)[Man(a1-6)]Man(b1-4)GlcNAc(b1-4)GlcNAc", "summary_of_the_method": "as §1"}, "Man(a1-6)Man": {"target": "Man(a1-6)Man", "summary_of_the_method": "as §1"}, "Man(b1-4)GlcNAc": {"target": "Man(b1-4)GlcNAc", "summary_of_the_method": "as §1"}, "Neu5Ac(a2-3)Gal": {"target": "Neu5Ac(a2-3)Gal", "summary_of_the_method": "as §1"}, "[26]": {"target": "Neu5Ac(a2-3)Gal(b1-3)GalNAc", "summary_of_the_method": "as §1"}, "[27]": {"target": "Neu5Ac(a2-3)Gal(b1-3)GalNAc(b1-3)Gal(a1-4)Gal(b1-4)Glc", "summary_of_the_method": "as §1"}, "[28]": {"target": "Neu5Ac(a2-3)Gal(b1-3)GalNAc(b1-4)[Neu5Ac(a2-3)]Gal(b1-4)Glc", "summary_of_the_method": "as §1"}, "[29]": {"target": "Neu5Ac(a2-3)Gal(b1-3)GalNAc(b1-4)[Neu5Ac(a2-8)Neu5Ac(a2-3)]Gal(b1-4)Glc", "summary_of_the_method": "as §1"}},
  "note": "Some of the results follow.",
  "data": [
    {"binder": "PpFlo3 (Pichia pastoris) (protein) MGSSHHHHHHSSGLVPRGSHMQESGNGTTSDTAYACDIGATPFDGFNATIYQYQASDDNSIQDPVFMSTGYLQRNQLHSTTGVTNPGFNIFTAGVATTTLYGIPNVNYQNMLLELKGYFRADASGNYGLSLRNIDDSAILFFGRETAFECCNENLIPLDEAPTDYSLFTIKEGEASTNPDSYTYTQYLEAGRYYPVRTFFANIRTRAVFNFTMTLPDGSELTDFQNYIFQFGALNQ", "values": [
      {"measurement": "glycan array binding signal (z-score)", "setting": "GlcNAc(b1-3)Gal(b1-4)Glc", "value": -0.291},
      {"measurement": "glycan array binding signal (z-score)", "setting": "[1]", "value": -0.259},
      {"measurement": "glycan array binding signal (z-score)", "setting": "[2]", "value": -0.072},
      {"measurement": "glycan array binding signal (z-score)", "setting": "GlcNAc(b1-3)GalNAc", "value": -0.266},
      {"measurement": "glycan array binding signal (z-score)", "setting": "GlcNAc(b1-3)Man", "value": 6.76},
      {"measurement": "glycan array binding signal (z-score)", "setting": "[3]", "value": -0.266},
      {"measurement": "glycan array binding signal (z-score)", "setting": "[4]", "value": -0.274},
      {"measurement": "glycan array binding signal (z-score)", "setting": "[5]", "value": 1.75},
      {"measurement": "glycan array binding signal (z-score)", "setting": "[6]", "value": 0.533},
      {"measurement": "glycan array binding signal (z-score)", "setting": "GlcNAc(b1-4)GlcNAc", "value": 0.856},
      {"measurement": "glycan array binding signal (z-score)", "setting": "[7]", "value": -0.213},
      {"measurement": "glycan array binding signal (z-score)", "setting": "[8]", "value": 0.71},
      {"measurement": "glycan array binding signal (z-score)", "setting": "[9]", "value": -0.284},
      {"measurement": "glycan array binding signal (z-score)", "setting": "[10]", "value": -0.243},
      {"measurement": "glycan array binding signal (z-score)", "setting": "[11]", "value": -0.296},
      {"measurement": "glycan array binding signal (z-score)", "setting": "GlcNAc(b1-6)GalNAc", "value": 0.169},
      {"measurement": "glycan array binding signal (z-score)", "setting": "GlcNAc3Prop(b1-4)GlcNAc", "value": -0.285},
      {"measurement": "glycan array binding signal (z-score)", "setting": "[12]", "value": -0.095},
      {"measurement": "glycan array binding signal (z-score)", "setting": "Kdn(a2-3)Gal(b1-3)GalNAc", "value": -0.267},
      {"measurement": "glycan array binding signal (z-score)", "setting": "Kdn(a2-3)Gal(b1-3)GlcNAc", "value": -0.273},
      {"measurement": "glycan array binding signal (z-score)", "setting": "Kdn(a2-3)Gal(b1-4)Glc", "value": -0.287},
      {"measurement": "glycan array binding signal (z-score)", "setting": "Kdn(a2-3)Gal(b1-4)GlcNAc", "value": -0.237},
      {"measurement": "glycan array binding signal (z-score)", "setting": "[13]", "value": -0.277},
      {"measurement": "glycan array binding signal (z-score)", "setting": "Kdn(a2-6)Gal(b1-4)GlcNAc", "value": -0.151},
      {"measurement": "glycan array binding signal (z-score)", "setting": "[14]", "value": -0.194},
      {"measurement": "glycan array binding signal (z-score)", "setting": "[15]", "value": -0.274},
      {"measurement": "glycan array binding signal (z-score)", "setting": "Man(a1-2)Man(a1-3)Man", "value": -0.203},
      {"measurement": "glycan array binding signal (z-score)", "setting": "[16]", "value": -0.266},
      {"measurement": "glycan array binding signal (z-score)", "setting": "[17]", "value": -0.301},
      {"measurement": "glycan array binding signal (z-score)", "setting": "[18]", "value": -0.266},
      {"measurement": "glycan array binding signal (z-score)", "setting": "[19]", "value": -0.272},
      {"measurement": "glycan array binding signal (z-score)", "setting": "[20]", "value": -0.282},
      {"measurement": "glycan array binding signal (z-score)", "setting": "[21]", "value": -0.271},
      {"measurement": "glycan array binding signal (z-score)", "setting": "Man(a1-3)[Man(a1-6)]Man", "value": -0.27},
      {"measurement": "glycan array binding signal (z-score)", "setting": "[22]", "value": -0.257},
      {"measurement": "glycan array binding signal (z-score)", "setting": "[23]", "value": -0.274},
      {"measurement": "glycan array binding signal (z-score)", "setting": "[24]", "value": -0.319},
      {"measurement": "glycan array binding signal (z-score)", "setting": "[25]", "value": 0.342},
      {"measurement": "glycan array binding signal (z-score)", "setting": "Man(a1-6)Man", "value": -0.283},
      {"measurement": "glycan array binding signal (z-score)", "setting": "Man(b1-4)GlcNAc", "value": -0.282},
      {"measurement": "glycan array binding signal (z-score)", "setting": "Neu5Ac(a2-3)Gal", "value": -0.283},
      {"measurement": "glycan array binding signal (z-score)", "setting": "[26]", "value": -0.265},
      {"measurement": "glycan array binding signal (z-score)", "setting": "[27]", "value": -0.262},
      {"measurement": "glycan array binding signal (z-score)", "setting": "[28]", "value": -0.261},
      {"measurement": "glycan array binding signal (z-score)", "setting": "[29]", "value": -0.276}
    ]}
  ]
}
